# According to patent US20250360087A1, “COMPOSITIONS COMPRISING LIPID DROPLETS ENCAPSULATED WITHIN POLYSACCHARIDE WALLS AND USES THEREOF” (UNIVERSITY OF SOUTH AUSTRALIA, priority 2022, published 2025):
# What was measured:
# RAW 264.7 cells [1] = test: Rifampicin internalisation within macrophages (HPLC of lysed cells); format: cell-based, Murine; conditions: 1 h incubation
# Protocol: Following this, the cells were washed 4 times to ensure the removal of extracellular particles and lysed for 15 minutes with DMSO at 37° C., 5% CO2. The lysed cells were then collected in an Eppendorf tube and centrifuged for 5 min at 600 g. The intracellular rifampicin uptake was evaluated by analysing the supernatant using described HPLC method.
# RAW 264.7 cells [2] = test: Particle uptake in macrophages, Nile red, flow cytometry; format: cell-based, Murine; conditions: 50 μg/mL Nile red
# Protocol: Freshly grown RAW 264.7 (˜7×10^4 cells per well), were plated in a 24-well plate and incubated for one day to promote cell adherence. After supernatant removal, the cells were exposed to either Nile red (50 μg/mL in DMEM) or Nile red loaded formulations at a final concentration equivalent to 50 μg/mL. Following 1 h and 4 h incubation, the cells were thoroughly rinsed (three times using sterile PBS) and collected from each well of plate. The cells were centrifuged at 600 g for 5 min and the subsequent cell pellets were resuspended in FACS buffer. The Nile red intensity inside cells was measured using Accuri C6 Plus flow-cytometer (BD Biosciences, Franklin Lakes, New Jersey, USA).
Structure (SMILES),rifampicin dose detected inside the macrophages (RAW 264.7 cells [1]),fluorescence intensity compared to control group (no treatment) (RAW 264.7 cells [2])
CO[C@H]1/C=C/O[C@@]2(C)Oc3c(C)c(O)c4c(O)c(c(/C=N/N5CCN(C)CC5)c(O)c4c3C2=O)NC(=O)/C(C)=C\C=C\[C@H](C)[C@H](O)[C@@H](C)[C@@H](O)[C@@H](C)[C@H](OC(C)=O)[C@@H]1C [rifampicin],16.5±3.26%,
"CCN(CC)c1ccc2nc3c4ccccc4c(=O)cc-3oc2c1 [Nile red solution, Nile red]",,did not exhibit any significant difference
